Sequences with one replicate were seen in a single cluster, so their values are uncertain.
The sequences below were run on ATP (assay: switch fluorescence ratio, 500 uM ATP over buffer (Cy3 cluster intensity, sum of 5 cycles each) (fold (ratio)); higher = stronger signal-on switching upon ATP binding; sequences stand for … in TCGTCGGCAGCGTCAGATGTGTATAAGAGACAGTTTTTTTTTTTTTTTTTTTTTTTTT…TC). Conditions: aptamer strand: ATP DNA aptamer (quencher-CACCTGGGGGAGTATTGCGGAGGAAGG + anchor), 100 nM annealed; ATP concentration: 500 uM; one replicate.
Summary of the method: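 After annealing to 100 nM quencher-labelled ATP aptamer, Cy3-labelled switching-strand clusters on a modified Illumina MiSeq flow-cell were imaged in selection buffer. A second image followed after 15 min with 500 uM ATP at 22 °C, and five such buffer/ATP cycles were done, each separated by NaOH stripping and re-annealing. The fluorescence ratio, averaged per switch-domain sequence, is summed target-cycle over summed buffer-cycle Cy3 intensity per cluster, with clusters outside 100-1000 RFU excluded.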
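Also: ATP exposure 15 min at 22 °C before imaging.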

Row | Sequence | switch fluorescence ratio
1 | TTACTCTGT | 1.02
2 | TTACTGCCCG | 1.11
3 | TTACTGGAGC | 0.985
4 | TTACTTCGAC | 1.11
5 | TTACTTGCGC | 1.16
6 | TTACTTTACA | 1.24
7 | TTAGAAGTCC | 1.04
8 | TTAGAATCTT | 1.04
9 | TTAGACAGTA | 1.03
10 | TTAGAGAAGC | 1.01
11 | TTAGAGCAAC | 1.13
12 | TTAGAGCCA | 1.02
13 | TTAGATAATT | 0.968
14 | TTAGATGATG | 0.968
15 | TTAGCAAAGA | 2.84
16 | TTAGCAACGG | 1.01
17 | TTAGCAGCCG | 0.999
18 | TTAGCATCGG | 0.969
19 | TTAGCATGA | 1.02
20 | TTAGCCGAAC | 1.05
21 | TTAGCCGGCT | 0.983
22 | TTAGCCTTAG | 1.07
23 | TTAGCGTTGG | 0.988
24 | TTAGCTCACT | 1.02
25 | TTAGCTGGAT | 0.97
26 | TTAGCTTGAT | 0.99

Row | Sequence | switch fluorescence ratio
27 | TTAGGAATAA | 1.01
28 | TTAGGCCACT | 0.96
29 | TTAGGCCGT | 1.02
30 | TTAGGCCTGA | 0.972
31 | TTAGGGAGGA | 0.978
32 | TTAGGTAGCG | 0.964
33 | TTAGTACGCC | 1.01
34 | TTAGTCAGAG | 1.04
35 | TTAGTCTTGT | 1.03
36 | TTAGTTCGCA | 1.06
37 | TTATAAAATG | 1.03
38 | TTATAAGCCG | 1.01
39 | TTATAAGGCA | 0.964
40 | TTATAAGTT | 0.954
41 | TTATACGGGG | 1.1
42 | TTATAGCAAC | 1.27
43 | TTATAGGA | 1.03
44 | TTATAGGAAA | 0.986
45 | TTATAGTAAC | 1.02
46 | TTATATCGAT | 1.01
47 | TTATATTACA | 1.02
48 | TTATCAACTA | 0.954
49 | TTATCAGAGA | 0.973
50 | TTATCAGCGA | 1.05
51 | TTATCCCTGT | 1.04
52 | TTATCCGTCC | 1.06

Row | Sequence | switch fluorescence ratio
53 | TTATCGGAAA | 0.991
54 | TTATCGGCGA | 1.07
55 | TTATCTAAC | 1.03
56 | TTATCTCGGG | 1
57 | TTATGACGAC | 1.05
58 | TTATGACGTT | 1.07
59 | TTATGAGAAT | 1.02
60 | TTATGAGCCA | 0.998
61 | TTATGATAAG | 0.977
62 | TTATGCCACT | 0.986
63 | TTATGCCATC | 1.07
64 | TTATGGGAT | 0.99
65 | TTATGTTCTT | 0.996
66 | TTATGTTGGA | 1.01
67 | TTATTGAAGT | 1.02
68 | TTATTGACCG | 1.15
69 | TTATTGAGGC | 0.936
70 | TTATTGCT | 0.974
71 | TTATTGTCC | 1.03
72 | TTATTTAAGA | 0.988
73 | TTATTTCTGC | 0.949
74 | TTATTTGAAA | 1.01
75 | TTATTTGTAT | 1.04
76 | TTATTTTGA | 0.979
77 | TTCAAAATGA | 0.956
78 | TTCAAAGGAA | 0.975

Row | Sequence | switch fluorescence ratio
79 | TTCAACACG | 1.27
80 | TTCAACACGG | 1.05
81 | TTCAACCCCA | 1.05
82 | TTCAACGGG | 1.11
83 | TTCAAGGGAA | 0.981
84 | TTCAATCCCC | 1.14
85 | TTCAATTACA | 1.01
86 | TTCAATTCCT | 1.04
87 | TTCACAAAAA | 0.997
88 | TTCACAAGGG | 1
89 | TTCACATATT | 1.03
90 | TTCACCATGA | 1.02
91 | TTCACGATAG | 0.999
92 | TTCACGTCCC | 1.07
93 | TTCACGTTCC | 2.32
94 | TTCACTACCC | 1.2
95 | TTCACTATGA | 1.03
96 | TTCACTTCGG | 1.01
97 | TTCAGACGG | 1.01
98 | TTCAGAGTCT | 1.07
99 | TTCAGCTCAA | 1.02
100 | TTCAGGCGGG | 0.988
101 | TTCAGGGATC | 1.12
102 | TTCAGTATA | 1.13
103 | TTCAGTATAA | 1.12
104 | TTCATAAGCA | 0.995

Row | Sequence | switch fluorescence ratio
105 | TTCATAGACC | 1.05
106 | TTCATCAGGC | 0.94
107 | TTCATCTGAG | 1.01
108 | TTCATTATAT | 1.03
109 | TTCATTCTGG | 0.996
110 | TTCATTGCGC | 1.04
111 | TTCATTGGCG | 1.06
112 | TTCCAATAGA | 0.997
113 | TTCCACATC | 1.03
114 | TTCCAGGATA | 1.06
115 | TTCCAGGGAC | 0.992
116 | TTCCATCGCT | 1.49
117 | TTCCATTCCC | 1.06
118 | TTCCCAAATA | 1.04
119 | TTCCCATCA | 1.01
120 | TTCCCCAATG | 1.15
121 | TTCCCCCCAT | 1.17
122 | TTCCGAAGGC | 1.22
123 | TTCCGAGGGA | 1.13
124 | TTCCGAGTTG | 1.07
125 | TTCCGATATG | 1.07
126 | TTCCGCCATG | 1.34
127 | TTCCGGCCCC | 1.46
128 | TTCCGGGAG | 1.11
129 | TTCCGTACTT | 1.05
130 | TTCCGTGATA | 3.29

Row | Sequence | switch fluorescence ratio
131 | TTCCTAGTCA | 1.02
132 | TTCCTATTGT | 1.04
133 | TTCCTCGTAA | 1.33
134 | TTCCTGAGGT | 1.08
135 | TTCCTGTATA | 0.975
136 | TTCCTTACG | 2.54
137 | TTCCTTACT | 1.16
138 | TTCCTTATTC | 1.4
139 | TTCGAATGGA | 1.03
140 | TTCGACTAGT | 0.996
141 | TTCGACTCCC | 1.12
142 | TTCGAGCCTG | 1.03
143 | TTCGAGGTCG | 1.04
144 | TTCGAGTTAG | 1.01
145 | TTCGATATTG | 1.01
146 | TTCGATCTTA | 0.98
147 | TTCGATGCAG | 0.977
148 | TTCGCACTCT | 1.27
149 | TTCGCCCACT | 1.26
150 | TTCGCCCTTG | 1.01
151 | TTCGCGTCAG | 0.968
152 | TTCGCGTCCG | 1.03
153 | TTCGGAGAAG | 1.06
154 | TTCGGGGAC | 1.06
155 | TTCGGTCCGG | 0.975
156 | TTCGTAAGGA | 0.926

Row | Sequence | switch fluorescence ratio
157 | TTCGTACGCG | 0.954
158 | TTCGTAGAGG | 0.979
159 | TTCGTCAGTA | 1.02
160 | TTCGTCCATT | 0.965
161 | TTCGTCCCAC | 1.03
162 | TTCGTCCGAT | 1.21
163 | TTCGTGAGCC | 0.978
164 | TTCGTGAGGG | 1.01
165 | TTCGTGTGTA | 1.01
166 | TTCGTTGGGA | 0.993
167 | TTCGTTTAAA | 1.02
168 | TTCGTTTCG | 0.974
169 | TTCTAACATA | 1.05
170 | TTCTAATAGG | 1.04
171 | TTCTACTA | 0.991
172 | TTCTAGAAGG | 1.02
173 | TTCTAGAATT | 0.978
174 | TTCTAGAGGT | 0.971
175 | TTCTAGATGG | 0.999
176 | TTCTCAGCTT | 1.01
177 | TTCTCCTGAG | 1.1
178 | TTCTCCTGTT | 1.01
179 | TTCTCCTTTC | 1.1
180 | TTCTGACGTT | 1.13
181 | TTCTGCGT | 1
182 | TTCTGCTACT | 1.17

Row | Sequence | switch fluorescence ratio
183 | TTCTGTACGC | 1.4
184 | TTCTGTCAGT | 1.01
185 | TTCTGTGATG | 0.989
186 | TTCTTATGCC | 0.978
187 | TTCTTCCGCG | 1.27
188 | TTCTTCGAGT | 0.971
189 | TTCTTGCGGT | 0.969
190 | TTCTTGGGCA | 1.03
191 | TTCTTGGGG | 1.01
192 | TTCTTGTTGC | 1
193 | TTCTTTGTAT | 1
194 | TTCTTTTCGG | 0.972
195 | TTGAAACGGG | 0.948
196 | TTGAAAGTCA | 1.02
197 | TTGAAATGGG | 1.04
198 | TTGAACGAGG | 1
199 | TTGAACTTCG | 0.995
200 | TTGAAGGATT | 0.972
201 | TTGAAGGGAG | 0.989

— the supplement of paper PMC10126150
